The values that follow come from publication PMC3879318.

Amino acid sequences for entries named in this document (tags omitted).
UniProt P17918: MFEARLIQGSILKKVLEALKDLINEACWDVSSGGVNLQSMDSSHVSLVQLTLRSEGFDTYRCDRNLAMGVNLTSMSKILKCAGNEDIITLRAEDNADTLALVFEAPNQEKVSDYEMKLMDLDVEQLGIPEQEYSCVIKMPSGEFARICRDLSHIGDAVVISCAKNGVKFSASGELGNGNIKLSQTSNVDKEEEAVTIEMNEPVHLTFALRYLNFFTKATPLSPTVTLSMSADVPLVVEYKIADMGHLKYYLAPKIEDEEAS
UniProt P02340: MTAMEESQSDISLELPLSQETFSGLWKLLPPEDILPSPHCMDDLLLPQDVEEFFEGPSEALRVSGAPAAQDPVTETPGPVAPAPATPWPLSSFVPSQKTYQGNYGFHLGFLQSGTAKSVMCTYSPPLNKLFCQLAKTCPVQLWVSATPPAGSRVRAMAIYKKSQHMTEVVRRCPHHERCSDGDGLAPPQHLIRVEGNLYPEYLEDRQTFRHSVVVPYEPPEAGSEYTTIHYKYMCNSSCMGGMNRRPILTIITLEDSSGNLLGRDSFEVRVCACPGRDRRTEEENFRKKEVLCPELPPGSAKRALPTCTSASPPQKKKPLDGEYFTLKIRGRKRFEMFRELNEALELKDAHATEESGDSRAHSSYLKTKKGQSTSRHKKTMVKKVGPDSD

Test [1] has as its target T1, necdin (endogenous, primary NPCs) (mouse (endogenous in primary NPCs)) (UniProt P25233).
T1 sequence: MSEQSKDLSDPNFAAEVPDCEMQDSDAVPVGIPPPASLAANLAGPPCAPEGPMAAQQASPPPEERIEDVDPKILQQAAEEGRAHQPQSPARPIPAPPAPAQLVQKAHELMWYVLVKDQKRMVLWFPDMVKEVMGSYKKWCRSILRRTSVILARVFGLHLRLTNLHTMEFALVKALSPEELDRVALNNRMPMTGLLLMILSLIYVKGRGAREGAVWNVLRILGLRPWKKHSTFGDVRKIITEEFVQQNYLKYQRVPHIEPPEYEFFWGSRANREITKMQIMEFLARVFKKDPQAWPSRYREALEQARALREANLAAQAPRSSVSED
Kind of test: co-IP; endogenous proteins; lysates of primary NPCs (500 µg protein) from E14.5 wild-type and necdin-null mice incubated with rabbit anti-necdin IgG or preimmune IgG; Dynabeads protein A; Western blotting. A general note: A western blot detects proteins with antibodies after separation by electrophoresis.

The next test addresses T2, necdin (UniProt P25233).
T2 sequence: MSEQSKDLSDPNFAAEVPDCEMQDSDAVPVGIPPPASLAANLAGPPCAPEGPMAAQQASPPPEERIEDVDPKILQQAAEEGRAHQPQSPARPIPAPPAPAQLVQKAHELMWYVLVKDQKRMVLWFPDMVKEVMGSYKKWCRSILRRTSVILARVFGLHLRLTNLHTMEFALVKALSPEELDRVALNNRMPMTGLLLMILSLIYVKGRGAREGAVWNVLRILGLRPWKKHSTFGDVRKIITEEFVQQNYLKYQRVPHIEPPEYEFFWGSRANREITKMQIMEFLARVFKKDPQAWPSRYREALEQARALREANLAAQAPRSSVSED
Kind of test: co-IP; HEK293A cells co-transfected with necdin and Myc-tagged proteins, harvested 24 hrs after transfection; cell extracts (200 µg) incubated at 4°C for 2 hrs with anti-necdin (NC243) and anti-Myc (9E10) antibodies in 10 mM Tris-HCl pH 8.0, 150 mM NaCl, 1 mM EDTA, 1% NP-40, 10% glycerol; protein A-Sepharose; Western blotting.

Test [2] concerns the target T3, 6×Myc-Bmi1 full-length (mouse) (UniProt P25916).
T3 sequence: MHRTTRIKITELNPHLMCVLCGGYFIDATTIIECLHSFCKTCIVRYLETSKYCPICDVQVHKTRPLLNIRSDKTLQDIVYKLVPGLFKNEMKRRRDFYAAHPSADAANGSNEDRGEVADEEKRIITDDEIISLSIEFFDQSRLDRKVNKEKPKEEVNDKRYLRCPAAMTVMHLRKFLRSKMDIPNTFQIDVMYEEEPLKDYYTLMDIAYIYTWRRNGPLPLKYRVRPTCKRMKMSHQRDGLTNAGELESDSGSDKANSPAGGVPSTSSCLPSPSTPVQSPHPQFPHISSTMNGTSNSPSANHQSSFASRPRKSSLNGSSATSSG
The test is described as above.

Test [3] concerns the target T4, GST-Bmi1 full-length (mouse) (UniProt P25916).
T4 sequence: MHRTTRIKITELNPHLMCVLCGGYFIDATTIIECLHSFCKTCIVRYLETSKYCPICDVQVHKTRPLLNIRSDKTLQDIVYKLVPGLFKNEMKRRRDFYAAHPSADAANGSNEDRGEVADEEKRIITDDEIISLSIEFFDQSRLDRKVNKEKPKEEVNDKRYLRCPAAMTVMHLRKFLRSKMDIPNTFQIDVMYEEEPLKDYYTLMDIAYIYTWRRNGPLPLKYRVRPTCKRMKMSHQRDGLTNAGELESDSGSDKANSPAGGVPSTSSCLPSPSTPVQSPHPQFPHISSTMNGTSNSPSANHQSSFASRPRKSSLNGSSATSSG
Put plainly: pull-down; GST-Bmi1 fusions immobilized on glutathione Sepharose 4B incubated with His-tagged necdin (200 ng) at 4°C for 2 hrs in 1 ml of 50 mM Tris buffer pH 8.0, 300 mM KCl, 2 mM 2-mercaptoethanol; bound His-necdin detected by Western blotting; both purified.

Results are given in words; binding and its absence hold for the method and conditions named. For part of these data: In cells and extracts the contact can be indirect. Some binding calls cover weakened binding; strength is not graded here. For part of these data: Tags and fused reporters may be left off the sequences shown.

As for “proliferating cell nuclear antigen (PCNA) (from UniProt P17918 1-261)”, the binding result in test [1] is “no binding”.

“p53 (positive control) (from UniProt P02340 1-390)”: the binding result with necdin is reported as “binds”.

B1: necdin (protein, UniProt P25233 1-325)
chain: MSEQSKDLSDPNFAAEVPDCEMQDSDAVPVGIPPPASLAANLAGPPCAPEGPMAAQQASPPPEERIEDVDPKILQQAAEEGRAHQPQSPARPIPAPPAPAQLVQKAHELMWYVLVKDQKRMVLWFPDMVKEVMGSYKKWCRSILRRTSVILARVFGLHLRLTNLHTMEFALVKALSPEELDRVALNNRMPMTGLLLMILSLIYVKGRGAREGAVWNVLRILGLRPWKKHSTFGDVRKIITEEFVQQNYLKYQRVPHIEPPEYEFFWGSRANREITKMQIMEFLARVFKKDPQAWPSRYREALEQARALREANLAAQAPRSSVSED
As for B1, the binding entry in test [2] is “binds”.

B2: His-tagged necdin (protein, UniProt P25233 1-325)
chain: MSEQSKDLSDPNFAAEVPDCEMQDSDAVPVGIPPPASLAANLAGPPCAPEGPMAAQQASPPPEERIEDVDPKILQQAAEEGRAHQPQSPARPIPAPPAPAQLVQKAHELMWYVLVKDQKRMVLWFPDMVKEVMGSYKKWCRSILRRTSVILARVFGLHLRLTNLHTMEFALVKALSPEELDRVALNNRMPMTGLLLMILSLIYVKGRGAREGAVWNVLRILGLRPWKKHSTFGDVRKIITEEFVQQNYLKYQRVPHIEPPEYEFFWGSRANREITKMQIMEFLARVFKKDPQAWPSRYREALEQARALREANLAAQAPRSSVSED
Regarding B2, the binding result in test [3] is reported as “binds”.

B3: 6×Myc-Bmi1 full-length (protein, UniProt P25916 1-324)
chain: MHRTTRIKITELNPHLMCVLCGGYFIDATTIIECLHSFCKTCIVRYLETSKYCPICDVQVHKTRPLLNIRSDKTLQDIVYKLVPGLFKNEMKRRRDFYAAHPSADAANGSNEDRGEVADEEKRIITDDEIISLSIEFFDQSRLDRKVNKEKPKEEVNDKRYLRCPAAMTVMHLRKFLRSKMDIPNTFQIDVMYEEEPLKDYYTLMDIAYIYTWRRNGPLPLKYRVRPTCKRMKMSHQRDGLTNAGELESDSGSDKANSPAGGVPSTSSCLPSPSTPVQSPHPQFPHISSTMNGTSNSPSANHQSSFASRPRKSSLNGSSATSSG
For B3, the binding entry with necdin was “binds”.

B4: Bmi1 (endogenous, primary NPCs) (protein, UniProt P25916 1-324)
chain: MHRTTRIKITELNPHLMCVLCGGYFIDATTIIECLHSFCKTCIVRYLETSKYCPICDVQVHKTRPLLNIRSDKTLQDIVYKLVPGLFKNEMKRRRDFYAAHPSADAANGSNEDRGEVADEEKRIITDDEIISLSIEFFDQSRLDRKVNKEKPKEEVNDKRYLRCPAAMTVMHLRKFLRSKMDIPNTFQIDVMYEEEPLKDYYTLMDIAYIYTWRRNGPLPLKYRVRPTCKRMKMSHQRDGLTNAGELESDSGSDKANSPAGGVPSTSSCLPSPSTPVQSPHPQFPHISSTMNGTSNSPSANHQSSFASRPRKSSLNGSSATSSG
Take B4: in test [1], the binding entry is given as “binds”.
